Test results: the supplement of paper PMC3334620
The full ranking holds about 33,000 sequences; the median of “E-score (-0.5 to 0.5)” is about -0.016, and the highest 2% start at about 0.32. This is one part of the list.

Molecular target: T1, Stp1 (UniProt B3LFK1)
T1 sequence: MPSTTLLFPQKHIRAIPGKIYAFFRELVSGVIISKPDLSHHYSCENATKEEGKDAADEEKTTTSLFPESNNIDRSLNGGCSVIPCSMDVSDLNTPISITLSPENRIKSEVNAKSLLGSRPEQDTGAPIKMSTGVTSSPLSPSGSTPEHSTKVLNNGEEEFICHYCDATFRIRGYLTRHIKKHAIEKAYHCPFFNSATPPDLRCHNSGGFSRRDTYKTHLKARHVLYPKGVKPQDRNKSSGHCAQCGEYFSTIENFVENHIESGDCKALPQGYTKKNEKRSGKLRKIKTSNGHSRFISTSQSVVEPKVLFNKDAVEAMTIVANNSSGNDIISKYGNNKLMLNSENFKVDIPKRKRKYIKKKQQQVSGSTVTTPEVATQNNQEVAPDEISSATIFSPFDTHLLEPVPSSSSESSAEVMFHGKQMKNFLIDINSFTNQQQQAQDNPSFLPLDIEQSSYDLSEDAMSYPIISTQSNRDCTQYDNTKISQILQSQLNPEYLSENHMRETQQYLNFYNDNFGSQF
Experiment: PBM E-score (8-mer binding enrichment) (E-score (-0.5 to 0.5)); higher = stronger / more preferred TF binding; most listed sequences are background and not binding sites
Conditions: protein concentration: 200 nM; construct: GST-full length
Outline: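 For each ungapped eight-base word taken together with its reverse complement, the Universal PBM Analysis Suite assigned an E-score. Binding data came from GST-tagged yeast transcription factors, applied at about 100-200 nM, on universal all-10-mer Agilent arrays made double-stranded by primer extension. Fluorescent anti-GST marked bound protein, and scans were normalised with masliner.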

Sequence | PBM E-score
CCTTGGAG | 0.0228
ACCGTCCT | -0.242
CAATGAGA | -0.114
ACGGTTAT | 0.00425
CCGTTGCG | 0.1
CACACGTA | -0.0636
GAGTGTGA | -0.066
GCAGCGGC | 0.32
AAAGCCGC | 0.369
CGGCCAAC | -0.0869
ATCCCTAA | -0.237
CGGAGGGA | -0.222
GAGAAACA | 0.147
GAGATGGA | -0.151
CTCCGAAA | -0.0604
CGCAAAGC | 0.126
ACGAGGGA | -0.0556
CCACTTGC | -0.039
ACCCATCT | -0.0565
CAAGAACA | 0.108
ATCTCCGC | -0.0598
GGTATGTA | -0.0225
CGACTCGA | -0.115
CGTCGGAA | -0.0303
AAATGAAA | 0.258

Sequence | PBM E-score
AGGCTTAA | -0.0554
ATGTTATA | 0.0942
ATAGGCAA | -0.0665
ACTCGCTC | -0.0965
AGGAACCT | -0.0332
GGCCGCCA | -0.12
CCATCTCC | -0.0527
AGCTCTTA | -0.0314
CTAGATGC | 0.0388
AGGATTCC | -0.192
GACTGTGA | -0.197
AGCCCATA | -0.239
CTCCTGGA | -0.167
GCGCTCGA | 0.0767
TAATTCTA | 0.0907
ACGTCGGG | -0.224
GCCGGACA | 0.218
CCGCGTTA | 0.277
ATCCAGTG | -0.0327
AGTTTAAG | -0.0872
TTAAGCAA | -0.0364
CTGAGACA | -0.0735
GATTAGGA | -0.0114
CTCAGGAA | -0.241
AGATCCAT | -0.0592

Sequence | PBM E-score
CAGAGCGC | -0.131
AAAATCGT | 0.0229
AGGCGCGG | 0.355
GGAGAACC | -0.243
ATGGGAGA | -0.316
CTGTTTCA | 0.038
TAAACTTA | -0.0782
GTGCCAAC | 0.0845
CCGAAAAG | 0.0457
GCGAAGCC | -0.0451
ATCCCTGA | -0.185
AGGGTCCC | -0.277
AGCTTTGG | -0.071
AAACAGAT | 0.158
ACGTAATG | 0.142
GTTCGACA | 0.184
CCGGCTCC | -0.129
AGGGCCAC | -0.0587
AGTGCGGA | 0.224
CAATATCC | -0.0268
CTGTCTCA | -0.0512
CACGATAC | -0.0326
GCGTTTTA | 0.141
CCATTTCC | 0.116
CAGCCGAG | -0.0997

Sequence | PBM E-score
AATTAAAT | 0.0676
TATAGGCA | -0.0593
TAGTTGAA | 0.0675
AGACTCCA | -0.314
AAGTACCA | 0.0493
GTCCAAGA | -0.0868
TCACGCCA | 0.116
AATAATAA | 0.269
AAAACAAT | 0.144
CGTCCACC | -0.107
ATTGCTTG | 0.0754
GGTAAGGA | -0.0448
CTCTCAAA | 0.0595
ATAACAGC | 0.163
CCACGTTC | -0.157
AAGCTGGT | -0.111
TGAAGCCA | 0.0179
GGCTTAAA | 0.173
GCGAGCGC | 0.0226
GCACTCAC | -0.0646
ATCCTTCA | 0.0336
GACTTCAC | -0.186
CATTGGGC | -0.0993
TAGCTCAA | 0.0239
AAAGTTGC | 0.0865

Sequence | PBM E-score
TACCGTCA | 0.0689
CCTGGCGA | -0.164
TGAGCGCA | -0.143
CGCCCAGA | -0.119
AGGGCCCC | -0.324
AGGGGTCC | -0.323
ACCGTTTG | 0.0535
CCTTAGGA | -0.0115
TATTTCAA | 0.151
AATCCAGT | -0.00903
CAACAGGC | -0.106
ATTGTATA | 0.113
TGGCAACA | 0.195
CGGAGGAA | -0.229
AGGTCTTG | -0.288
AAGGGGGA | -0.275
CATGATGA | 0.149
TACGCGAA | 0.0568
AGCATGTG | -0.123
AGGCTAGG | -0.268
AAGGCGGT | 0.105
CGATCATC | -0.156
TTGCACAA | 0.181
ACCGGTGC | -0.144
AATAGTTC | 0.0784

Sequence | PBM E-score
AATAACTC | -0.0209
GGAACGTA | -0.107
CGCGGAAG | -0.0339
GCATTGCC | 0.141
GGATCCAA | -0.0224
CCGCTAAA | 0.0947
CCCAGCCC | -0.301
AAGTATCG | -0.0707
ACGGCGGC | 0.445
AGTGCTGA | -0.144
ACGAACCG | -0.171
CCCTTACC | -0.254
AGCTCTTG | -0.247
ATTAAAGG | 0.116
ATTTCCAC | 0.0875
GAAACTTC | 0.0677
ATCCGTCC | -0.127
CGGGTACC | -0.269
GTATGATA | 0.262
CACCCTTA | -0.0284
ACGTCAAA | 0.147
GCCAGGCA | -0.107
CTTTCGTA | 0.0309
ACGCTAGG | -0.225
GACGTACC | -0.182

Sequence | PBM E-score
AATATTAA | 0.224
AGCCTAAT | -0.0476
ATATATGA | 0.0649
AACAACGC | 0.0779
CGGTCCAG | -0.273
ACCCAAGT | -0.143
AACGATCG | -0.0317
ATACTGGG | -0.194
AACTAGTC | -0.146
AGGAGGAA | -0.189
CGCTGGTA | -0.154
AACCACCT | -0.0136
AAGCTTGG | -0.131
ACGCCATG | 0.197
AATTGGTC | 0.061
AGATCTAT | -0.14
ATATCCAT | 0.0536
CACGTCAA | -0.121
CAGGAACC | -0.291
CTCTTCCC | -0.158
AGCGTGAC | -0.111
GCGTCTGA | 0.0171
